{"source": "patent US20160257711A1", "about": "(BOARD OF TRUSTEES OF THE UNIVERSITY OF ILLINOIS, published 2016)", "target": "T1, purified recombinant Gα13 (Homo sapiens (Human), UniProt Q14344 1-377, limits assumed)", "T1 construct": "Expression and purification only 'described previously'; Loaded with GDP, GTPγS or AlF4- in some reactions; also called Purified Gα13", "T1 sequence": "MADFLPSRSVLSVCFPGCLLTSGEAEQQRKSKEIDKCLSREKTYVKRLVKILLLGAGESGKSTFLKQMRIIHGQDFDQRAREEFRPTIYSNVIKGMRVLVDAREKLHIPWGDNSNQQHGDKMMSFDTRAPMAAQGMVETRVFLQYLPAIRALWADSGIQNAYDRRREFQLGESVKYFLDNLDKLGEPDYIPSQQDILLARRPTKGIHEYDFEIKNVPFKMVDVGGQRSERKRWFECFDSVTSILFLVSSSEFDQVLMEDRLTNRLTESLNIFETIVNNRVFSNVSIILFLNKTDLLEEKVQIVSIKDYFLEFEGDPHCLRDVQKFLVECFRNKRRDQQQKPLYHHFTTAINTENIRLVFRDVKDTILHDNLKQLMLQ", "test": "pull-down of purified Gα13 with GST on glutathione beads, anti-Gα13 blot", "data": [{"binder": "glutathione S-transferase (GST) (other, Control protein on glutathione beads) not shown", "values": [{"measurement": "binding result", "result": "no binding"}]}]}
